# Measured values taken from PubChem BioAssay AID488969 (Vanderbilt High Throughput Screening Facility, 2010).
# In all, about 110,000 compounds were measured (“z-score”: median about -0.1, highest 2% from about 2 on). The list shows a part of the results.
# Target: Metabotropic glutamate receptor 8 (Rattus norvegicus) (UniProt P70579)
# Experiment: rat mGluR8 modulators via GIRK flux, primary screen, cell-based, thallium flux, HTS (AID 488969)
# Settings: HEK293 rat mGluR8, GIRK (G protein-gated inwardly rectifying potassium channel) thallium flux, FluoZin2; at 10 µM; stronger effect = higher value; submaximal glutamate (EC20) added with thallium
# Sequence of UniProt P70579 (P70579 whole entry, looked up): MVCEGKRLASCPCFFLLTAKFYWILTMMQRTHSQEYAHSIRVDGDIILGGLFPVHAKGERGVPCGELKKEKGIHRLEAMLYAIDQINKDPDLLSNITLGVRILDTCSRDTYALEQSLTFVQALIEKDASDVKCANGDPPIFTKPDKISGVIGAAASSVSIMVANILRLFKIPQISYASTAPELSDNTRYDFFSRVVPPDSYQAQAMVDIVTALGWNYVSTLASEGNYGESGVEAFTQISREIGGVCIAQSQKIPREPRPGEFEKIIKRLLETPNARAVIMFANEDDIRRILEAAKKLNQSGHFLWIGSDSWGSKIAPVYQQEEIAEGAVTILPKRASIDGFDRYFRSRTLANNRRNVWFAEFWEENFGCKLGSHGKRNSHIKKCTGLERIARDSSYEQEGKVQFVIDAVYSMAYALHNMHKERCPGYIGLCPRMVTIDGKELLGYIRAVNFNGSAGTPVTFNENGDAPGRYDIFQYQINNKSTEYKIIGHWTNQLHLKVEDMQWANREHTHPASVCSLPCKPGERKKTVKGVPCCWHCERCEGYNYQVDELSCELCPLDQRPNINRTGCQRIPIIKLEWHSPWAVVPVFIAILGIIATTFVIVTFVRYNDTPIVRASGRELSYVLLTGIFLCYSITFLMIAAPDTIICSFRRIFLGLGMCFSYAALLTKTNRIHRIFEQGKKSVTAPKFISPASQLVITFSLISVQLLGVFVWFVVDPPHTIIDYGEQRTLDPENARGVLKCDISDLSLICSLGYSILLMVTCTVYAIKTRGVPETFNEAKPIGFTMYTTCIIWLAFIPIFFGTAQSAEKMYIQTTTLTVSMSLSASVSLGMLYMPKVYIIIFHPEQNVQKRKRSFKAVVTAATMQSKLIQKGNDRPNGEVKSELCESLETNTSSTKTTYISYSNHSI
row,SMILES,z-score
1,COc1ccc(C2C(C(N)=O)=C(C)Nc3ncnn32)cc1 (configuration not stated),-0.213
2,COc1cccc(C2NC(=O)NC(C)=C2C(=O)OCCSC)c1OC (configuration not stated),0.0431
3,CCC(=O)Nc1ccc(C(=O)Nc2ccc(OC)cc2[N+](=O)[O-])cc1,-0.0433
4,CCc1ccc(NC(=O)C(C)OC(=O)c2cccc(S(=O)(=O)N3CCc4ccccc4C3)c2)cc1 (configuration not stated),-0.686
5,COc1ccc(C(=O)NC(=S)NNC(=O)Cc2cccs2)cc1,0.741
6,O=C(c1ccc(S(=O)(=O)N2CCCCC2)cc1)N1CCN=C1SCc1cccnc1,0.0251
7,FC(F)(F)c1cc(Oc2ccc(Cl)cc2)nc(-c2ccccn2)n1,-0.207
8,Cc1ccc(-n2nc(C(=O)N3CCN(C)CC3)c3c4ccccc4n(C)c3c2=O)cc1,-0.129
9,CCc1nc(C)ccc1OCC(=O)N(CC)CC,-0.238
10,Cc1cc(N2CCN(c3nc4ccccc4s3)CC2)n2ncnc2n1,-1.35
11,O=C(Cc1ccccc1)NCCCc1ccccc1,0.0139
12,COc1ccc2c(c1)OC(O)(C(F)F)CC2=O (configuration not stated),0.794
13,O=C(/C=C\c1ccccc1)Nc1nccs1,0.24
14,COC(=O)C(Cc1ccc(OC(=O)c2ccc(C)cc2)cc1)N1Cc2ccccc2C1=O (configuration not stated),0.664
15,Cn1c(=O)c2c(nc(CN3CCC(C(N)=O)CC3)n2CCCc2ccccc2)n(C)c1=O,-0.371
16,O=C1c2ccccc2C(Nc2ccc(S(=O)(=O)N3CCOCC3)cc2)N1c1cccnc1 (configuration not stated),0.421

row,SMILES,z-score
1,O=C1CC(C(=O)Nc2ccccc2)C2(CCCC2)O1 (configuration not stated),-0.154
2,Clc1ccccc1CN1CCC(Cc2ccccc2)CC1,-0.0513
3,O=S(=O)(c1ccc2ccccc2c1)N1CCCOC1,1.06
4,Cc1ccc(NC(=O)NCCCN2CCCC2=O)cc1,-0.26
5,Cn1nc([N+](=O)[O-])c2c(-c3nc4ccccc4s3)c(N)n(C3CCCCC3)c2c1=O,-0.261
6,Cc1c(C(=O)C(=O)NCCC2=CCCCC2)c2ccccc2n1C,-0.264
7,CN(C)S(=O)(=O)c1ccc(-c2csnn2)s1,-0.237
8,S=c1nc(C2CCCCC2)[nH][nH]1,-0.0473
9,C=CCN1C(=O)C(O)(CC(=O)c2ccc(OC)cc2OC)c2cc(Br)ccc21 (configuration not stated),-0.551
10,Cc1ccc(S(=O)(=O)N2CCCC2C(=O)OCc2ccccc2)cc1 (configuration not stated),-0.73
11,Cc1ccc(Nc2nc(CSc3nnc(-c4ccncc4)n3C)cs2)cc1,-0.0472
12,CCOc1ccccc1NC=C1C(=O)OC(C)(C)OC1=O,-0.229
13,COc1ccc(-c2nsc(SCC(=O)NCc3ccc4c(c3)OCO4)n2)cc1,-0.208
14,COc1ccc(NC(=O)c2cccc(-n3c(C)ccc3C)c2)c(OC)c1,-0.204
15,COc1ccccc1CNC(=O)CC(C)C,0.319
16,O=C(Nc1ccc(Nc2ccccc2)cc1)C1CC1,-0.457
